Changes are numbered by the printed parent chain.
B1: hT4VL.FRv40129 (antibody, human IgG1, kappa)
heavy: EVQLVESGGGLVQPGGSLRLSCAASGYTFTSYVMHWVRQAPGKGLEWVSAINPYNDGNYYADSVKGRFTISRDNSRKTLYLQMNSLRAEDTAVYYCARGAYKRGYAMDYWGQGTTVTVSSASTKGPSVFPLAPSSKSTSGGTAALGCLVKDYFPEPVTVSWNSGALTSGVHTFPAVLQSSGLYSLSSVVTVPSSSLGTQTYICNVNHKPSNTKVDKKV[human IgG1 Fc not given here]GSGGGSVTGYRLFEEIL
light: DLVMTQSPSSLSASVGDRVTITCKSSQSLFESRTRKNYLAWYQQKPGKAPKLLIYWASTRESGVPARFSGSGSGTDFTLTISSLEPEDFAVYYCQQYYYHMYTFGQGTKVEIKRTVAAPSVFIFPPSDEQLKSGTASVVCLLNNFYPREAKVQWKVDNALQSGNSQESVTEQDSKDSTYSLSSTLTLSKADYEKHKVYACEVTHQGLSSPVTKSFNRGEC
B2: hT4VL.FRv40146 (antibody, human IgG1, kappa)
heavy: B1 heavy
light: B1 light with E31N, S32D
B3: hT4VL.FRv40147 (antibody, human IgG1, kappa)
heavy: B1 heavy
light: B1 light with E31N, S32E
B4: hT4VL.FRv40164 (antibody, human IgG1, kappa)
heavy: B1 heavy
light: B1 light with E31N, R33D
B5: hT4VL.FRv40168 (antibody, human IgG1, kappa)
heavy: B1 heavy
light: B1 light with E31N, R33H
B6: hT4VL.FRv40170 (antibody, human IgG1, kappa)
heavy: B1 heavy
light: B1 light with E31N, R33K
B7: hT4VL.FRv40171 (antibody, human IgG1, kappa)
heavy: B1 heavy
light: B1 light with E31N, R33L
B8: hT4VL.FRv40176 (antibody, human IgG1, kappa)
heavy: B1 heavy
light: B1 light with E31N, R33S
B9: hT4VL.FRv40178 (antibody, human IgG1, kappa)
heavy: B1 heavy
light: B1 light with E31N, R33V
B10: hT4VL.FRv40182 (antibody, human IgG1, kappa)
heavy: B1 heavy
light: B1 light with E31N, T34D
B11: hT4VL.FRv40010 (antibody, human IgG1, kappa)
heavy: B1 heavy
light: B1 light with K24N, E31N
B12: hT4VL.FRv40201 (antibody, human IgG1, kappa)
heavy: B1 heavy
light: B1 light with E31N, R35E
B13: hT4VL.FRv40203 (antibody, human IgG1, kappa)
heavy: B1 heavy
light: B1 light with E31N, R35G
B14: hT4VL.FRv40208 (antibody, human IgG1, kappa)
heavy: B1 heavy
light: B1 light with E31N, R35M
B15: hT4VL.FRv40212 (antibody, human IgG1, kappa)
heavy: B1 heavy
light: B1 light with E31N, R35S
B16: hT4VL.FRv40224 (antibody, human IgG1, kappa)
heavy: B1 heavy
light: B1 light with E31N, K36L
B17: hT4VL.FRv40057 (antibody, human IgG1, kappa)
heavy: B1 heavy
light: B1 light with Q27E, E31N
B18: hT4VL.FRv40228 (antibody, human IgG1, kappa)
heavy: B1 heavy
light: B1 light with E31N, K36Q
B19: hT4VL.FRv40255 (antibody, human IgG1, kappa)
heavy: B1 heavy
light: B1 light with E31N, Y38E
B20: hT4VL.FRv40312 (antibody, human IgG1, kappa)
heavy: B1 heavy
light: B1 light with E31N, Q95H
B21: hT4VL.FRv40313 (antibody, human IgG1, kappa)
heavy: B1 heavy
light: B1 light with E31N, Q95I
B22: hT4VL.FRv40321 (antibody, human IgG1, kappa)
heavy: B1 heavy
light: B1 light with E31N, Q95T
B23: hT4VL.FRv40324 (antibody, human IgG1, kappa)
heavy: B1 heavy
light: B1 light with E31N, Q95Y
B24: hT4VL.FRv40345 (antibody, human IgG1, kappa)
heavy: B1 heavy
light: B1 light with E31N, Y97E
B25: hT4VL.FRv40346 (antibody, human IgG1, kappa)
heavy: B1 heavy
light: B1 light with E31N, Y97F
B26: hT4VL.FRv40353 (antibody, human IgG1, kappa)
heavy: B1 heavy
light: B1 light with E31N, Y97N
B27: hT4VL.FRv40381 (antibody, human IgG1, kappa)
heavy: B1 heavy
light: B1 light with E31N, Y99E
B28: hT4VL.FRv40074 (antibody, human IgG1, kappa)
heavy: B1 heavy
light: B1 light with S28D, E31N
B29: hT4VL.FRv40399 (antibody, human IgG1, kappa)
heavy: B1 heavy
light: B1 light with E31N, H100E
B30: hT4VL.FRv40407 (antibody, human IgG1, kappa)
heavy: B1 heavy
light: B1 light with E31N, H100P
B31: hT4VL.FRv40536 (antibody, human IgG1, kappa)
heavy: B1 heavy
light: B1 light with E31N, R33S, R35S, Q95Y, H100Q, M101P
B32: hT4VL.FRv40537 (antibody, human IgG1, kappa)
heavy: B1 heavy
light: B1 light with E31N, R33S, R35S, Y97E, H100Q, M101P
B33: hT4VL.FRv40538 (antibody, human IgG1, kappa)
heavy: B1 heavy
light: B1 light with E31N, R33S, R35S, Y97F, H100Q, M101P
B34: hT4VL.FRv40539 (antibody, human IgG1, kappa)
heavy: B1 heavy
light: B1 light with R33S, R35S, Q95Y, H100Q, M101P
B35: hT4VL.FRv40540 (antibody, human IgG1, kappa)
heavy: B1 heavy
light: B1 light with R33S, R35S, Y97F, H100Q, M101P

What follows are binders tested against ECM (extracellular matrix) (assay: ECL plate assay on coated ECM (Matrigel)).

ECM binding vs Control Ab (pH 5.8) (fold vs Control Ab)	ECM binding vs Control Ab (pH 7.4) (fold vs Control Ab)	Binder
59.3	6.7	B1
61.6	5.3	B2
75.8	5.6	B3
12.3	1.3	B4
97	5.1	B5
92.9	8.5	B6
28.1	2.9	B7
35.4	3.3	B8
27.7	2.6	B9
34.5	5.2	B10
102	–	B11
58.2	3.5	B12
90.2	5.3	B13
80.1	5.2	B14
93.9	6.1	B15
76.9	8.6	B16
103	9	B17
63.7	7.7	B18
31.3	4.5	B19
100	14	B20
102	14.5	B21
102	19.3	B22
98.1	14	B23
97.2	9.6	B24
99.2	16.3	B25
101	15.2	B26
97.4	7.3	B27
96.1	6.8	B28
53.1	8.6	B29
81.3	13.1	B30

Target: ECM (extracellular matrix)
Experiment: ECL plate assay on coated ECM (Matrigel)
Remark: another data set of the same source

ECM binding vs Control Ab (pH 5.8) (fold vs Control Ab)	ECM binding vs Control Ab (pH 7.4) (fold vs Control Ab)	Binder
15.7	0.7	B31
2.87	0.51	B32
3.84	0.72	B33
10.3	1.27	B34
4.09	1.03	B35

Reference: US20240124614A1
